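Exposure lasted 48 hours, with cells grown in 96-well plates and compounds tested at five concentrations. The concentration for 50% growth inhibition is given as GI50. The concentration for full growth arrest is given as TGI.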
What follows are compounds tested on NCI-H322M lung (assay: NCI tumour cell line growth inhibition, 48 h).
In the case of `CCN(CC)CCOc1ccc(C(=C(c2ccccc2)C2CCCC2)c2ccc(OCCN(CC)CC)cc2)cc1`, the GI50 is reported as greater than 16.3 µM and the TGI is reported as greater than 16.3 µM.
In the case of `O=c1[nH]c(Sc2sc3ccc(Cl)cc3c2CBr)nc(=S)[nH]1`, the GI50 is reported as greater than 100 µM and the TGI is reported as greater than 100 µM.
In the case of `CC[C@H](C)[C@H]1NC(=O)[C@@H]([C@H](O)C(C)C)NC(=O)[C@@H](C)N(C)C(=O)[C@H](C)N(C)C(=O)[C@H](CC(C)C)NC(=O)[C@H](CC(C)C)N(C)C(=O)[C@H](C)N(C)C1=O`, the GI50 is reported as 0.202 µM and the TGI is reported as 5.27 µM.
`C#C[C@]1(O)CC[C@H]2[C@@H]3CC=C4c5sc(NCc6ccccc6)nc5CC[C@]4(C)[C@H]3CC[C@@]21C` gave a GI50 of 3.89 µM and a TGI of 15.7 µM.

From PubChem BioAssay (NCI)
